Test results: the supplement of paper PMC10338343
± gives the standard deviation. In all, about 3,000 sequences were measured (“pre-steady-state target cleavage rate”: median about 0.0079, highest 2% from about 0.2 on). The list shows a part of the results, in another mix than the full data.

System: MILI (PIWIL2) piRISC loaded with piRNA #2 (26 nt)
Experiment: pre-steady-state target cleavage rate (min^-1); MIWI and MILI are mouse PIWI proteins and EfPiwi is from a freshwater sponge; tags in brackets are library labels; higher = faster piRNA-guided slicing of the target
Conditions: guide: piRNA #2 5'p-UUAGGUAACCCAGUAGAUCCAGAGGA; auxiliary factor: 500 nM mouse GTSF1
Procedure, shortened: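 Cleave-'n-Seq: a transcribed, DNA-blocked target RNA library (0.1 nM) was mixed with 1 nM active affinity-purified piRISC carrying one synthetic guide, with or without 500 nM GTSF1 partner protein, in HEPES–potassium acetate buffer at 33 °C for 0–8 or 0–960 min. Uncleaved targets were sequenced and normalised to depth and to weakly complementary targets. Three trials were pooled, and k3 was capped at 0.0001 min^-1. The pre-steady-state cleavage rate came from a burst-and-steady-state fit.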

Sequence	pre-steady-state target cleavage rate
CUUAAGGAGACCUAGUACUGGGGUACCUAA	< 0.0001
CUUAUCCUCUGGAUUUACUGGGUUACCUAA	0.149 ± 0.022
CUUAACCUCUGGAUCUACUGGGUAUGCUAA	0.0798 ± 0.024
CUUAACCUCUCGAUCUACUGGGAUACCUAA	0.0514 ± 0.011
CUUAUCCUCUGCAUCUACUGGGUUACCUAA	0.275 ± 0.056
CUUAAGCUCUAGAUCUACUGGGUUACCUAA	0.0691 ± 0.012
CUUAAGCUCUGGAUCUACAGGGAUACCUAA	0.0216 ± 0.0073
CUUAAGGAAUGGAUCUACUGGGUUACCUAA	0.0666 ± 0.015
CUUAUCGUCUGGAUCUACUGGGUAACCUAA	0.0217 ± 0.0067
CUUAAGCUCUGGAUCUACUAGGUUACCUAA	0.0525 ± 0.016
CUUAAGGUCUGGAUCUACUGGAUUACCUAA	0.00949 ± 0.0056
CUUAAGGUCUGGAUCUCCUGGGUUACCUAA	0.0281 ± 0.013
CUUAAGGUCUCGAUGUACUGGGUUACCUAA	0.036 ± 0.015
CUUAAGCUCUCGUUCUACUGGGUUACCUAA	0.132 ± 0.028
CUUAAGGAGAGGGAUCUACUGGGUUACCUAA	0.00931 ± 0.0034
CUUAACCUCUGGAUCUACUGGGAUUACCUAA	0.0546 ± 0.018
CUUAUCCACUGGAACUACUGGGUUACCUAA	0.076 ± 0.014
CUUAACCUCUGGUUCUUCUGGGUUACCUAA	0.169 ± 0.046
CUUAAGGACUGGAUCUACUGGGUUACCUAG [g2:g22:cont:t1G]	0.0474 ± 0.017
CUUAACCUCUCGAACUACUGGGUUACCUAA	0.0843 ± 0.013
CUUAUGCUCUGGAUCUACUGGGUUUCCUAA	0.161 ± 0.039
CUUAAGGACUGGAUCUACUGGGUUGCCUAA	0.0229 ± 0.013
CUUAACCUCUGGAUCACUGGGUUACCUAA	0.00841 ± 0.0052
CUUAACUUCUGGAUCUACUGGGUUACCUAA	0.0906 ± 0.017

Sequence	pre-steady-state target cleavage rate
CUUAAGGAGUGGAUCUACUGCGUUACCUAA	0.00578 ± 0.0042
CUUAACCUCUGGAUCAAGUGGGUUACCUAA	0.0417 ± 0.01
CUUAAGGAGACGUUCAACUGGGUUACCUAA	< 0.0001
CUUAAGGAGUGGAUCUACAGGGUUUCCUAA	0.056 ± 0.012
CUUAACCUCAGGAACUACUGGGUUACCUAA	0.0837 ± 0.021
CUUAACCUCUCCAUCUACUGGGUUACCUAA	0.118 ± 0.021
CUUAACCUCUGCUACUACUGGGUUACCUAA	0.0726 ± 0.016
CUUAUCCUCUGGUUCUACAGGGUUACCUAA	0.167 ± 0.031
CUUAAGGUCUGGAUCUACUGGGUUACUAA	0.113 ± 0.026
CUUAAGGAGACCUAGAUCUGGGUAACCAAA	< 0.0001
CUUAUCCACUGGAUGUACUGGGUUACCUAA	0.0889 ± 0.017
CUUAACCUCUGAGAUCUACUGGGUUACCUAA	0.143 ± 0.031
CUUAUCCUCUGGAUGUACAGGGUUACCUAA	0.135 ± 0.011
CUUAUCCUCAGGAUCUACUGGGUUACCAAA	0.051 ± 0.011
CUUAAGGUCUGGAUCUACUGGGUUAGCUAA	0.0948 ± 0.018
CUUAACCUCUGGAACUACUGCGUUACCUAA	0.0178 ± 0.0084
CUUAACCACUGGAUCUACUGGGUUUCCUAA	0.0636 ± 0.019
CUUAAGCUCUGGAACUACUGCGUUACCUAA	0.0134 ± 0.0072
CUUAAGGUCUGGAUCGACUGGGUUACCUAA	0.0608 ± 0.014
CUUAAGGAGACCUACUACUGGGUUACGAUA	< 0.0001
CUUAAGCUCUGGUUCUACUGGGUUACCUUA	0.126 ± 0.036
CUUAAGGUCUGGAUCUACUGGGUCUACCUAA	0.0262 ± 0.0079
CUUAAGGUCUGGAUCUACUGGGUGACCUAA	0.0186 ± 0.0078
CUUAAGCUCACGAUCUACUGGGUUACCUAA	0.102 ± 0.029

Sequence	pre-steady-state target cleavage rate
CUUAAGGACUAGAUCUACUGGGUUACCUAA	0.0231 ± 0.013
CUUAACCUCUGGAUCUACUGCGUAACCUAA	0.00792 ± 0.0051
CUUAAGGUCUGGAUCUAGUGGGUUACCAAA	0.0567 ± 0.013
CUUAUCCUUCUGGAUCUACUGGGUUACCUAA	0.102 ± 0.021
CUUAAGCUCUGGAUCAACUGCGUUACCUAA	0.0057 ± 0.005
CUUAAGCUCGUGGAUCUACUGGGUUACCUAA	0.0285 ± 0.016
CUUAUCCUCUGGAUCUUCAGGGUUACCUAA	0.0802 ± 0.011
CUUAUCCUCUGGAUCUAGUGGGUUACCUAA	0.0881 ± 0.014
CUUAACCAGUGGAUCUACUGGGUUACCUAA	0.0864 ± 0.016
CUUAAGGUCUGGAUCUUCUGCGUUACCUAA	0.00525 ± 0.0044
CUUAAGGACUCGAUCUACAGGGUUACCUAA	0.0295 ± 0.0084
CUUAAGGAGUGGAUCUACUGGGUUUCCUAA	0.018 ± 0.0074
CUUAAGCUCUGGAUCUACUUGGGUUACCUAA	< 0.0001
CUUAACCUCUGGAUACUACUGGGUUACCUAA	0.0873 ± 0.022
CUUAAGCUCAUGGAUCUACUGGGUUACCUAA	0.0484 ± 0.014
CUUAUCCUCUGGAUCUACUGGGUUACGAAA	0.0846 ± 0.019
CUUAAGGACUGGAUCUACUGGGUAUACCUAA	0.0248 ± 0.016
CUUAAGCUCUGGAUCUACUGGGUAUACCUAA	0.0713 ± 0.015
CUUAAGGUCUGAAUCUACUGGGUUACCUAA	0.0377 ± 0.0095
CUUAAGGAGAGGAUCUACGGGGUUACCUAA	0.0142 ± 0.0046
CUUAUCCUCUGCAUGUACUGGGUUACCUAA	0.0877 ± 0.013
CUUAAGCUCUUGAUCUACUGGGUUACCUAA	0.102 ± 0.018
CUUAAGCUCUGGAUGUACUGGGUUACCUAA	0.0646 ± 0.016
CUUAUCCUCUGGAUCGACUGGGUUACCUAA	0.0789 ± 0.0097
